Reference: PubChem BioAssay AID488969 (Vanderbilt High Throughput Screening Facility, 2010)
The full ranking holds about 110,000 compounds; the median of “z-score” is about -0.1, and the highest 2% start at about 2. This is one part of the list. Calls of active or inactive are those of the source.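 Rule for the calls: active = z-score in the third read window above 3 or below -3; inactive = the rest.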

Each compound was assayed against Metabotropic glutamate receptor 8 (Rattus norvegicus) (UniProt P70579) (assay: rat mGluR8 modulators via GIRK flux, primary screen, cell-based, thallium flux, HTS (AID 488969)). Settings: HEK293 rat mGluR8, GIRK (G protein-gated inwardly rectifying potassium channel) thallium flux, FluoZin2; at 10 µM; stronger effect = higher value; submaximal glutamate (EC20) added with thallium.
Chain of UniProt P70579 (P70579 whole entry, looked up): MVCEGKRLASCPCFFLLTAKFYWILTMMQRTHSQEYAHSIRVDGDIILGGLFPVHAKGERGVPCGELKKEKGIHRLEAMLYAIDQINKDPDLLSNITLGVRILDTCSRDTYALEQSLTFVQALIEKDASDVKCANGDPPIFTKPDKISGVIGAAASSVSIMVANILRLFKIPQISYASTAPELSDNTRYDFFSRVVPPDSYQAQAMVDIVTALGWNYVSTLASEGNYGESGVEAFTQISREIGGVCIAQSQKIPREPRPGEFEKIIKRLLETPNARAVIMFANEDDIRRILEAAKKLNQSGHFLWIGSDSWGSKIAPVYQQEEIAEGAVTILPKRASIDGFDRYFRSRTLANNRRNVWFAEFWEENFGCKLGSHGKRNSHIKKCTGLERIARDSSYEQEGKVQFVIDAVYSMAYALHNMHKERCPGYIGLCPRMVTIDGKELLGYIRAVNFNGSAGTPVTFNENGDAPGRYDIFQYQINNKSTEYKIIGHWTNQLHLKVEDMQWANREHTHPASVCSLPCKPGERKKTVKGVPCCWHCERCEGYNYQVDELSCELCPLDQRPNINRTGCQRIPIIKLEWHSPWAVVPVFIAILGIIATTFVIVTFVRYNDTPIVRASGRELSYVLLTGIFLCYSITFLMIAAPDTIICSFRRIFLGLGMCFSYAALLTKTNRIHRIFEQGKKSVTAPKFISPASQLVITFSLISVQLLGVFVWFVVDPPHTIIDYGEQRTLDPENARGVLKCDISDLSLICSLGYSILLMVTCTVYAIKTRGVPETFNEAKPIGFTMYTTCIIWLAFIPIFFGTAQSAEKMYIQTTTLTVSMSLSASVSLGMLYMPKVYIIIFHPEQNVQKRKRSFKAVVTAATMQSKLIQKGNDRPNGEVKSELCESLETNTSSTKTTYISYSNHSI

Row | SMILES | z-score
1 | COc1ccccc1N1CCN(C(=O)CCc2ccc(S(=O)(=O)NC(C)C)cc2)CC1 | -0.363
2 | COC(=O)c1ccccc1NC(=O)N1CCN(C/C=C/c2ccccc2)CC1 | -1.05
3 | Cc1ccc(Nc2cc(-n3nc(C)cc3C)ncn2)cc1 | -0.269
4 | CC1=CC(=O)N(c2ccc(C)cc2)C1c1ccc(Cl)cc1 (stereo not drawn) | -0.379
5 | CCC(C)(C)NC(=O)C(c1ccccc1)N(Cc1cccnc1)C(=O)c1csnn1 (stereo not drawn) | 0.0873
6 | CCCCc1nc2sc3c(=O)n(N)cnc3c2c2c1CCCC2 | -0.123
7 | COc1ccc(-c2ccc(C#N)c(SCC(=O)Nc3sc4c(c3C#N)CCC4)n2)cc1 | -0.111
8 | O=C(CCN1c2ccccc2Sc2ccccc21)Nc1ccccc1 | -0.189
9 | Cc1cc([N+](=O)[O-])nn1Cc1ccccc1F | -0.213
10 | COc1ccccc1CNC(=O)CSc1ccc(C)cc1 | -0.171
11 | N#C/C(=C\c1cn[nH]c1-c1ccc(Cl)cc1)C(=O)NCc1ccccc1 | -0.224
12 | O=C(/C=C/NNC(=O)c1ccccc1)c1ccc(Br)cc1 | 1.33
13 | COC(=O)c1ccc(NC(=O)C2C3CCC(C3)C2C(=O)O)cc1 (stereo not drawn) | -0.102
14 | OC(COc1ccccc1)Cn1cc(Br)cn1 (stereo not drawn) | 0.478
15 | COc1cc(OC)c(C2Oc3nc(SC)nnc3-c3ccccc3N2C(C)=O)cc1OC (stereo not drawn) | 0.147
16 | CSc1nc(C)cc(OCCO)n1 | 0.402
17 | Cn1nc(OCc2ccccc2)ccc1=O | -0.202
18 | COc1cc2cc(CN(C(=O)Nc3ccccc3)C3CCCC3)c(=O)[nH]c2cc1OC | -0.291
19 | Cc1ccc(S(=O)(=O)N2CCOCC2)cc1N/N=C(\C#N)c1nc2ccccc2[nH]1 | 0.221
20 | N/C(=N\OC(=O)/C=C/c1ccc(Br)cc1)c1ccccn1 | -0.142
21 | C(=N\Nc1nc(N2CCOCC2)nc(N2CCOCC2)n1)/c1ccncc1 | -0.0871
22 | CC(Sc1nc2ccccc2c(=O)[nH]1)C(=O)O (stereo not drawn) | 1.3
23 | O=C(N/N=C/c1c(Cl)cccc1Cl)c1n[nH]c2c1CCCC2 | -0.132
24 | Cc1ccc(Cl)cc1NC(=O)c1cccc(OC(F)F)c1 | -0.2
25 | COCCCn1c2nc3ccccc3nc2c2c(=O)n(CC3CCCO3)cnc21 (stereo not drawn) | -0.601

Row | SMILES | z-score
26 | Nc1nnc(CC2=CCCCC2)s1 | 0.175
27 | COCCNc1cc(N)c([N+](=O)[O-])cc1[N+](=O)[O-] | -0.484
28 | CCOC(=O)c1ccccc1NC(=O)/C=C/C(=O)O | -0.105
29 | CCCNc1c(N)c(=O)oc2ccccc12 | -1.25
30 | Cc1ccc(NC(=O)CC2Nc3ccccc3NC2=O)cc1Cl (stereo not drawn) | 0.287
31 | O=C(Nc1nc2c(c(=O)[nH]1)CCCC2)C1CC1 | -0.428
32 | CCC(Sc1ccc(C(=O)O)cc1)C(=O)O (stereo not drawn) | 0.0621
33 | COc1ccc(C(=O)Nc2cccc(OC(=O)c3ccc(C)c(C)c3)c2)cc1 | -0.176
34 | CCCCOc1ccccc1NC(=O)c1ccco1 | -0.751
35 | N#CC(C#N)=Cc1ccc(-c2ccc(S(=O)(=O)N=C(N)N)cc2)o1 | 0.0352
36 | O=C(N/N=C\c1ccc(F)cc1)c1cc(OCC(F)(F)F)ccc1OCC(F)(F)F | -0.242
37 | O=C(Nc1cccc(Cl)c1)Nc1nnc(-c2ccncc2)s1 | -0.194
38 | Cc1ccc(C)c(N(CC(=O)NCc2ccco2)C(=O)CCC(=O)Nc2ccccn2)c1 | -0.679
39 | CCCn1nc2cc(C(=O)NCCc3ccc(C)cc3)ccc2c1OCC | 2.73
40 | Cn1c2ccccc2c2cc(C(=O)N3CCN(CCO)CC3)sc21 | 0.0169
41 | COc1ccc(C(=O)n2c(-c3ccco3)nc3ccccc32)cc1 | -1.07
42 | Cc1ccc(N2C(=O)[C@@H]3[C@H](C2=O)C2c4ccccc4C=NN2[C@@H]3C(=O)c2ccc(Cl)cc2)cc1 (stereo partly drawn) | 1.69
43 | CC(NS(=O)(=O)c1ccc(Br)cc1)C(=O)NCCc1ccccc1 (stereo not drawn) | -0.457
44 | CC1CN(Cc2nc3c(c(=O)n(C)c(=O)n3C)n2CCCc2ccccc2)CC(C)O1 (stereo not drawn) | -0.556
45 | CC(C)(C)C1CCC(OC(=O)c2ccncc2)CC1 (stereo not drawn) | 0.0808
46 | N#Cc1ccc(C(c2nnnn2Cc2ccccc2)N2CCCC2)cc1 (stereo not drawn) | -0.0525
47 | CCn1c(SCC(=O)Nc2ccc3c(c2)OCO3)nc2ccccc21 | -0.218
48 | CN(c1ccccc1C(=O)Nc1cccnc1)S(C)(=O)=O | 0.0619
49 | CCNc1nc(SCc2ccccc2)nc(N2CCOCC2)n1 | -0.898
50 | Nc1c(S(=O)(=O)c2cccs2)c2nc3ccccc3nc2n1Cc1ccccc1 | -0.107

Row | SMILES | z-score
51 | COC(=O)c1cc(CN2CCN(c3ccccc3C)CC2)ccc1O | 0.326
52 | Cn1c(=O)[nH]c2cc(Cl)cnc21 | 0.0453
53 | CCOC(=O)C1CCN(C(=O)Cc2c(C(=O)O)[nH]c3ccccc23)CC1 | 0.174
54 | CCCCNC(=O)n1c(SC)nc2ccccc21 | -0.0061
55 | CCOc1cc(S(=O)(=O)Nc2ccc(CC)cc2)ccc1Cl | 0.0907
56 | Cc1ccc2c(c1)N1C(=O)c3ccccc3C1C1=C(CC(C)(C)CC1=O)N2 (stereo not drawn) | -0.0445
57 | C=CCn1c(-c2cccn(Cc3ccc(Cl)cc3)c2=O)n[nH]c1=S | 0.776
58 | CCCn1c(NCc2c[nH]c3ccccc23)nc2ccccc21 | 0.265
59 | O=C(O)C1C2C=CC(C2)C1C(=O)NCCCn1ccnc1 (stereo not drawn) | -0.053
60 | CCCc1cc(=O)n2[nH]c(-c3ccc(Br)cc3)cc2n1 | active: 3.04
61 | [O-][n+]1onc2c1CCc1nnc(-c3ccccc3)cc1-2 | -0.0502
62 | O=C(c1cc(-c2ccccc2)nc2ccccc12)N1CCc2ccccc2C1 | -0.569
63 | Cn1c(SCc2cccnc2)nnc1-c1c[nH]c2ccccc12 | -0.112
64 | O=C(CSc1ncnc2c(-c3ccc(Cl)cc3)nsc12)c1ccccc1 | 0.178
65 | Cc1ccc(NC(=O)CSc2nc(O)c(Cc3ccccc3)c(=O)n2-c2ccccc2)cc1 | -0.47
66 | CCc1ccc2c(Cl)c(C(=O)N/N=C/c3c[nH]c4ccccc34)sc2c1 | -0.00757
67 | O=c1nc2ccccc2c(NS(=O)(=O)c2ccc(Cl)cc2)n1-c1ccccc1 | -0.325
68 | Cc1ccccc1S(=O)(=O)Cc1ccc(C(=O)NCc2cccs2)o1 | 0.133
69 | CCCCCN(C(=O)CN(C)Cc1ccc(OC)cc1OC)c1c(N)n(CCCC)c(=O)[nH]c1=O | 0.0701
70 | Cc1nc(NC(=S)NC(=O)c2cccs2)sc1C(=O)N(C)C | -0.329
71 | CN1C(=O)C2(c3ccccc31)C1CCCC=C1C(C#N)=C(N)C2(C#N)C#N (stereo not drawn) | -0.329
72 | CCc1cccc2c(C(=O)COC(=O)c3c(C)noc3C)c[nH]c12 | 0.137
73 | Cc1ccc(C(=O)SC2=NCCS2)cc1 | -0.731
